This passage reports binding signal results from PMC12136788.

To fix the notation:
B1: chr5:21408736:21408737:-_ENSMUSG00000042453_ENSMUST00000161356|mus_hu|mus_mus_mus_hu_False|78_98 (ssRNA)
RNA: GGGAGUUCUACAGUCCGACGAUCGUUGACAGAGUUGUAAAUGGUGGCUUCAUGGAACUGGAACGGGGAGCAGCCAAUGCUGUUAGAAGAGGAAGGAAGGCACUGGGUCUGUACGAGCUGCCAGGAAUCCGAUCUUGCAUCCUUCAACAGAGGAUUGAGCAUCA
B2: chr2:73747301:73747302:-_ENSMUSG00000018770_ENSMUST00000018914|mus_hu|motif|central (ssRNA)
RNA: GGGAGUUCUACAGUCCGACGAUCAUAACCAAUGAUAAGGCUGCCAAAGACUGUUCCAAUACCAGCACCAGAACCAGCCACUCCGGCUGUUGCAGCACCUGCACCAAUAAAUUUGGCAGCAGUAUCAAUGUCUCUGCUGAUUGCCAACAGAGGAUUGAGCAUCA
B3: chr15:43699750:43699751:-_ENSG00000067369_ENST00000382044|hu_mus|motif|central (ssRNA)
RNA: GGGAGUUCUACAGUCCGACGAUCACACUUGAGCACCGAGGCUGGGCAUGAGGGGUCUGUCACCACCACAUCAAAUACCCCGGAAGCAAUGUCUUUGUUGUGGGCACUUGAAUGGUGCUGCUUCACAGAGGCUGCCCCUCCAGUCAACAGAGGAUUGAGCAUCA
B4: 113335602_113338832_600_3pUTR_ENSMUSG00000079426_ENSMUST00000156898|mouse|control|control (ssRNA)
RNA: GGGAGUUCUACAGUCCGACGAUCCCUUUGCAGACGCAGAGACACAGGGAGGCCGAGGGGAAGGCUGCGAGAUCCAGCUAGAUGUUUUAAAAAUUCUUGAGGAACUCCUCAGCUACGAUACGAGCCCGGGCAUUGACCGACAGCCAACAGAGGAUUGAGCAUCA
B5: 44935981_44937674_2843_CDS_ENSG00000147050_ENST00000377967|human|control|control (ssRNA)
RNA: GGGAGUUCUACAGUCCGACGAUCAGGAAAGAAAGCAUCACGUUUAUUUUCCAAGUAAAUACUAGGUGUAGGUGGAUUCAACUUGUCCUUUGGCAAGGGAGGGUAUGGUGAAGAUGGUGGUCUUGGAGGUGGACAUUUAUCCAACAACAGAGGAUUGAGCAUCA
B6: chr2:198351390:198351391:-_ENSG00000144381_ENST00000345042|hu_hu|hu_hu_hu_mus_False|58_88 (ssRNA)
RNA: GGGAGUUCUACAGUCCGACGAUCUCAUUCCCACCCUCCACAGAAAGGCUGCUUAACAACUCUCAUGUGGUGACACAGCACUAAAAUCCUGAUGCUCACAGAACAGUAGAGAUGCCUCAGUGAUUUAAGUUGAAAGCAGGACACCAACAGAGGAUUGAGCAUCA
B7: chrX:69798090:69798091:-_ENSMUSG00000031343_ENSMUST00000055966|mus_hu|FALSE|FALSE (ssRNA)
RNA: GGGAGUUCUACAGUCCGACGAUCAAGUCCCCGGGUUCUUGUCGUCUUGAUUCCCCUUGACCAGUGGUUCCAGGGAGAAUAUUAAUCAGGAAAAGAAUCCCAAGGCUGGUCAUGUAACAGUGACUUGUUUGUGUGAUUAUCAUCCAACAGAGGAUUGAGCAUCA
B8: chr1:160310041:160310042:-_ENSG00000122218_ENST00000241704|hu_mus|FALSE|FALSE (ssRNA)
RNA: GGGAGUUCUACAGUCCGACGAUCUUUGUCAAUUAGGGUGCACAUCCGAUAGUCCCAUAACUGGAUGACCCCAUUGUGUAAACUGGUCAGGAUCCAGGGUCUUUUAGGAUGAAAACUAAGGCCUUUGACCCGCGCGCUCUUCGUCAACAGAGGAUUGAGCAUCA
B9: chr2:42509997:42509998:+_ENSG00000143924_ENST00000318522|hu_mus|hu_hu_hu_mus_True|28_28 (ssRNA)
RNA: GGGAGUUCUACAGUCCGACGAUCUCGCUGAGUCCUCUCCUCAUAAUUAAACAGGACUACCACUGAGGCGAUAAAAUAAACUAUCUCCCCUGUGGGAAGCAGGUAUACAUUAGCUCUACAGUCCUUUCCUCGAUAACCGUAUACCAACAGAGGAUUGAGCAUCA
B10: chr17:61432403:61432404:+_ENSG00000170921_ENST00000424789|hu_mus|motif|central (ssRNA)
RNA: GGGAGUUCUACAGUCCGACGAUCCUUCAUAUUGCACUGGAGUAAAUAAACCUCAGAGAGCGAAACAGGAACGACUUUGUAGCGGGAACUCUUUAGCACUAGGUAGCCUUUCUCUAUGAGGUCAAAUGUGAGUUUCAGGUAUAGCAACAGAGGAUUGAGCAUCA
B11: 12325077_12325638_1010_3pUTR_ENSMUSG00000064127_ENSMUST00000096495|mouse|control|control (ssRNA)
RNA: GGGAGUUCUACAGUCCGACGAUCAACUCGAAACUUCACACGGCCAUUUGCCACUGUAAGAUUUGCUAGCUGUGGAGGAAGAUCUGUCGUUACAAGCCUAUGUCUAAGAAUCUGAUUAAGCUGAUGAAGUGUGGCUUGUUUCUCCAACAGAGGAUUGAGCAUCA
B12: chr6:99998177:99998178:-_ENSG00000112237_ENST00000369220|hu_hu|FALSE|FALSE (ssRNA)
RNA: GGGAGUUCUACAGUCCGACGAUCAAGGGGAAGCAACAUGUCUUCUUGGCCCAUGUCCUGCACAUACUGGAGCAAAGGUCUAUAAGGAUGAUACACUAUCAAGCAACAAUCCAUUAGUUCUAACAGAUAGAAUUCACAUUCUAACAACAGAGGAUUGAGCAUCA
B13: chr12:57918738:57918739:+_ENSG00000166987_ENST00000355673|hu_hu|FALSE|FALSE (ssRNA)
RNA: GGGAGUUCUACAGUCCGACGAUCUGCUGGCCCCACCCCAGCCCCACCCGGGGUCACCGGGGCCAAAGGGUCAAAGUUGAAAACCUUGGGGACAUUAAGUGGACACUCCAGACCGCACUUGCAGGUCCCAUCGCUGAGGAGGUACAACAGAGGAUUGAGCAUCA
B14: 37442170_37476550_135_5pUTR_ENSMUSG00000063646_ENSMUST00000043794|mouse|control|control (ssRNA)
RNA: GGGAGUUCUACAGUCCGACGAUCACAGCUACCAGCUCGGCUGUGCUAAGCAGUCGUACAGGGCUCCGCUCGUCCUCUGUGCACACCAUCACUGGCGAGUCCAGCAAGGUCAGCCUUGGACAGAUGAGCGGUCUCCUCUGUGCCCAACAGAGGAUUGAGCAUCA
B15: 159998549_160000332_1686_CDS_ENSG00000068885_ENST00000483465|human|control|control (ssRNA)
RNA: GGGAGUUCUACAGUCCGACGAUCUCCACAAAGGAUAUUGCAUGUAUCGUUCCAUGCCAAAGUAUGCACCAUUGUUCCAAGCUUGAUAAUUUGUUCUUCCUUCCCAAAUCGUUUCACAGAAGUGAUACAGAGAUCUCUAUUUUUCAACAGAGGAUUGAGCAUCA
B16: chr1:60041781:60041782:+_ENSMUSG00000041040_ENSMUST00000036540|mus_hu|mus_mus_mus_hu_False|58_88 (ssRNA)
RNA: GGGAGUUCUACAGUCCGACGAUCAAGUUUACAAUAGUAAAGUAAAUCAAAUUUAGUCAAAUUUUCUUUUAUUUUCCUUCCUAAAAGAAAAUCUUUAUAACCCAGUCCUAGUCUUGGACAUAGUGAAAGCUAUAAAUUCUGACUCAACAGAGGAUUGAGCAUCA
B17: chr1:213302989:213302990:+_ENSG00000136643_ENST00000366960|hu_mus|motif|central (ssRNA)
RNA: GGGAGUUCUACAGUCCGACGAUCAGAAGCAACAGCCCCUACUGCCGAAGAAUCCGUAGACAGACUCAGACCAAAGGUUCGGCUGGGAGAACCCUGACGGGAAGCCAUUCCAUCAUCUACCUCGGCAAGAGAGUCUGCAUCAACCAACAGAGGAUUGAGCAUCA
B18: chr6:86333760:86333761:-_ENSG00000135316_ENST00000355238|hu_mus|motif|central (ssRNA)
RNA: GGGAGUUCUACAGUCCGACGAUCUUCCUCAAGAAUCUGCUCCUUGGUUUUACUCUUAGGAAUCGAGCCCACAAAAAGCCGGUUGUUGGCAACUGAGAUGCAGACACCAAUGUGCUUCCCGGAACGAAUUUCAUGAUUAUUAUACAACAGAGGAUUGAGCAUCA
B19: chr10:33190432:33190433:-_ENSG00000150093_ENST00000302278|hu_mus|hu_hu_hu_mus_True|1_88 (ssRNA)
RNA: GGGAGUUCUACAGUCCGACGAUCUACAUUUUCCAAACCUGCAUGUGAGUAAAACCAUGGCCACAGAGCCCCAAAACUACCCUACUGUGACUAAGAUGCUGCUGCUGUGAGCUUGGUGUUGCAAAAUCCGCCUGAGUCAGUACUCAACAGAGGAUUGAGCAUCA
B20: chr17:65740002:65740003:+_ENSG00000130935_ENST00000581375|hu_hu|hu_hu_hu_mus_False|18_28 (ssRNA)
RNA: GGGAGUUCUACAGUCCGACGAUCAACAAAUCUUUCUUCCCUGGACGAACAGGAAGAUUCAUAUUAAAAAAAAUAUAUAUCCAUCAAGUUAGGUGUGGUGGCCACACAGAGCUCCAGCACUUCAAUUGAGGUGGAUCUCUGAGUCAACAGAGGAUUGAGCAUCA
B21: chr12:93804944:93804945:-_ENSG00000177889_ENST00000549833|hu_mus|FALSE|FALSE (ssRNA)
RNA: GGGAGUUCUACAGUCCGACGAUCCAUGAAACGUACUUUAGGUGCUGCCAUUGGGUAUUCUUCUGGAAGGAAUAGUUCAAGUUUAAAAGUCCCUCCCUCAAAGGGGGAAUCCUGGGGGCCAGCAAUGACCACAUGAAAAUAACGCAACAGAGGAUUGAGCAUCA
B22: chr7:149068622:149068623:-_ENSMUSG00000025139_ENSMUST00000001950|mus_hu|mus_mus_mus_hu_False|48_58 (ssRNA)
RNA: GGGAGUUCUACAGUCCGACGAUCGUGAGGCCUCUGAGUGUGGCUUGUGGUCUGUCCUGGGUUAGAGUUGUUAAUAUCACUAAGUGGACCACUUAAGACGUUCCAGUCCCGCCUGACACCUUCAUUCCCAAUGGAGAAGAAAUCCAACAGAGGAUUGAGCAUCA

Some of the results follow.

The target in this experiment is T1, UNK ZnF1-3 (human, UniProt Q9C0B0 31-174).
T1 sequence: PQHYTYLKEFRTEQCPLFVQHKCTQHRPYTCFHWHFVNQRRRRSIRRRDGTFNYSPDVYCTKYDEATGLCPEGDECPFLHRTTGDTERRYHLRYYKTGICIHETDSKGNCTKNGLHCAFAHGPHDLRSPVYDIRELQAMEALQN
Briefly: nsRBNS (natural sequence RNA bind-n-seq); RBNS binding buffer (assumed for nsRBNS): 25 mM Tris pH 7.5, 150 mM KCl, 3 mM MgCl2, 0.01% Triton X-100, 500 ug/ml BSA, 20 U/ml SUPERase-In, 4 C; UNK is unkempt and MSI1 is Musashi-1; names of the RNAs are library labels; protein concentration not given here; high values mean tight binding.
In the case of B1, the binding signal came out at 2.13 enrichment R.
The result for B2 reads 0.999 enrichment R; that for B3, 0.97 enrichment R.
Next, B4: 1.46 enrichment R.
The result for B5 reads 1.24 enrichment R; that for B6, 1.15 enrichment R.
B7: the binding signal stood at 0.636 enrichment R.
In turn, B8 returned a binding signal of 0.89 enrichment R.
Regarding B9, the binding signal amounted to 1.09 enrichment R.
The result for B10 reads 1.33 enrichment R; that for B11, 0.821 enrichment R.
In turn, B12 displayed a binding signal of 0.9 enrichment R.
Next, B13: 1.25 enrichment R; B14: 0.484 enrichment R; B15: 0.972 enrichment R.
Next, B16: 0.604 enrichment R; B17: 1.56 enrichment R; B18: 1.39 enrichment R.
As to B19, the binding signal amounted to 0.999 enrichment R.
The molecule B20 yielded a binding signal of 1.09 enrichment R.
The result for B21 reads 1.08 enrichment R; that for B22, 0.835 enrichment R.
